± gives the standard deviation of the averaged measurements. The list shows a part of the results.
These sequences were tested on PfAP2-G AP2 domain (GST-tagged) (assay: gcPBM binding intensity (ln(normalized median fluorescence intensity)); higher = stronger DNA binding).
How it was run: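 Binding of GST-tagged P. falciparum DNA-binding domains, expressed in E. coli and used at about 25 μg on average, was carried out for 1 h in 1× PBS containing 1% milk, 0.2 mg/ml BSA, 0.5% salmon testes DNA and 0.03% Triton X-100. The target was an Agilent 4 × 180k array of primer-extended double-stranded 36-bp intergenic genomic probes plus negative controls, read with Alexa488 anti-GST antibody at 488 nm. Binding intensity is the highest Masliner-normalised natural-log median intensity across replicate spots of either probe orientation.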

Row | Sequence | gcPBM binding intensity (ln)
1 | GATATCCTTATATTTGCACACACACCCAATAAAATG [CACACA_site1028] | 10.5 ± 0.28
2 | AAAAAATACAGACACACACACACACGCATATAAATA [CACACA_site7644] | 10.3 ± 0.29
3 | TATATATATAACAGAATGCACTTTATATGTTCATAT [GTGCAC_site9880] | 9.905 ± 0.007
4 | TATACGTATACCTATACACACATATATTTATTTATA [CACACA_site6716] | 10.3 ± 0.19
5 | TTTTTTTATTTTGTATGTACATATCATTTGATATTC [XGTACX_site8449] | 11.1 ± 0.71
6 | TAATAAATTCATAATTGTACATTGAAGTATTATGCA [XGTACX_site5121] | 10.6 ± 0.32
7 | TTGTTTATATATATATGTACATATTTTAAGGCATCC [XGTACX_site6976] | 11.3 ± 0.86
8 | CCACGTATACGATGCACACGTATGCTTTATATATAG [CACACA_site4108] | 10.165 ± 0.007
9 | ATTAAATCCGCACGCACACACACATATTAAGAAAAA [CACACA_site6062] | 10.6 ± 0.54
10 | GTTGAAAAAAATATATGTACGTATATATGTATGTAT [XGTACX_site8201] | 11.5 ± 0.97
11 | AGTAGCGGCGGTATCATGCACACGTATAGATTGTAA [CACACA_site1587] | 10.3 ± 0.23
12 | TTGGTAAATATATTTTGAATATAAGAAATATAGACG [CACACA_negctrl_site1634] | 10.08 ± 0.071
13 | ATTATTACTATATGTGTACACATCAACTGGTTTGAT [CACACA_site5563] | 11.6 ± 0.97
14 | AAAATATATTATTATTGTACATATATTTTCATTTAC [XGTACX_site4593] | 11.1 ± 0.49
15 | TAAATATATTTATAAGCACACACTAATAAACCCACA [CACACA_site390] | 10.6 ± 0.38
16 | AATTTTTATACGGATACACACAAAAAAAAATAAAAA [CACACA_site897] | 10.5 ± 0.45
17 | TTTATTTTGTTTATGGTGCATTTTATGTAAATATAT | 10.2 ± 0.28
18 | ATATATTATCTGTACACACACATATAAGGGATTATA [CACACA_site4180] | 11.5 ± 0.87
19 | AATAAATAAATAAATAAATAAATATATATATATATA [GTGCAC_negctrl_site330] | 9.81 ± 0.49
20 | TAATGACAATAAAAATAAATAAATAAAAAAAAAAAA [TGCATGCA_negctrl_site321] | 9.51 ± 0.59
21 | AAATTACCCATCCATACACACATATTTTTTTTAATT [CACACA_site2189] | 10.3 ± 0.16
22 | GATACAGATGGACACACACACATACATAAATACATA [CACACA_site5833] | 11.1 ± 0.71

Row | Sequence | gcPBM binding intensity (ln)
23 | AAGGCATATATAATTTGTACATATTAAGAATTAGAT [XGTACX_site8660] | 10.7 ± 0.35
24 | AAGAAAATAAAAAGGTAAATATGTATAAATAAATAA [TGCATGCA_negctrl_site88] | 9.58 ± 0.23
25 | TGAAATAAAATTATTTGTACATATCGGAAAAAAAAA [XGTACX_site7131] | 10.8 ± 0.4
26 | TTTTTTGAAAATAAATGTACGAATTTTATATTTAAA [XGTACX_site2768] | 10.9 ± 0.84
27 | ATAATTATATACCATGCACACAAATATTCATACAGG [CACACA_site9343] | 10.16 ± 0.064
28 | AAGAACCATATTTAAACACACATACCTATATAAATA [CACACA_site7553] | 9.87 ± 0.014
29 | GCACAAATATATATATATATATATATATATATATAT [GTGCAC_negctrl_site661] | 9.8 ± 0.44
30 | TTATGCATATATTATGCATGTAGTTTTAAATCACAT [TGCATGCA_site104] | 9.63 ± 0.085
31 | TATATACACATTTTTATACACACTTGTTTTATAAAA [CACACA_site8139] | 10.3 ± 0.28
32 | AAAAAATACATACATACACACATATTTATTTATATA [CACACA_site6554] | 9.91 ± 0.099
33 | TATATATATTTATAATGTACACATATATGTAAATAT [XGTACX_site3695] | 11.3 ± 0.86
34 | TGCCCTAACCATACTACACACACTGCTCAAAATAGT [CACACA_site2219] | 10.5 ± 0.28
35 | TACAATATAAAATACACACACACAAACATATATTTA [CACACA_site5941] | 10.02 ± 0.014
36 | ATATATATATATAATACACACTTATGAAATGTCTAA [CACACA_site5077] | 10.2 ± 0.33
37 | TTAATACATACATTCACACACACTAATTGTATATTT [CACACA_site9362] | 10.005 ± 0.007
38 | TTCTTTTTTCGACACACACACACAAGAAGATATATA [CACACA_site7456] | 10.4 ± 0.48
39 | AACGAAAATAAGAAAAGTACAAAAAATACCAAATAA [XGTACX_site6171] | 11.2 ± 0.6
40 | ATACGAATAAATTTCGCATGCAGCATATATATCAAT [TGCATGCA_site612] | 9.71 ± 0.23
41 | TGTACAAATATGTTGAAAATAAAATTTCAATATATT [XGTACX_negctrl_site13] | 10.31 ± 0.014
42 | AATAAATAAAAAATTACACACATATATATAAATATA [CACACA_site3434] | 9.69
43 | ATATATGCATATATATGTACATATATATATATATAT [XGTACX_site7403] | 11.2 ± 0.67
44 | TATTTCATATGAAGAAGTACTATTAATAATTTCCTT [XGTACX_site6587] | 11.2 ± 0.79

Row | Sequence | gcPBM binding intensity (ln)
45 | TAAATTATAAATTGCACACATATTTTTATATTTATA [CACACA_site2976] | 9.71 ± 0.16
46 | ATATTTTTAGATTCAGAAAAAAGATTCAACTTACTC [CACACA_negctrl_site1357] | 9.82 ± 0.14
47 | CAAAAATAATAGAATACATGCAAAAATAAATGTATA [TGCATGCA_site196] | 9.76 ± 0.23
48 | ATAATATATTTAATCATACACACATTTATGTACCTA [CACACA_site1719] | 10.7 ± 0.42
49 | AAAAATAAAGGGTGTGCACACAAAAATATATATATA [CACACA_site1727] | 10.8 ± 0.52
50 | TTTTTTTTTAAAACATAATAAAAAATAAAACAACCT [GTGCAC_negctrl_site92] | 10.2 ± 0.29
51 | ACATATTATTCAAGTGCACACTTTATATTTATGATT [CACACA_site3295] | 10.23 ± 0.028
52 | ATTTAATTCGTACATACACACGCACATATATATATA [CACACA_site8415] | 11.3 ± 0.78
53 | TATATGAAATATTATGCACACAATATATAATATGAT [CACACA_site936] | 9.94 ± 0.099
54 | AATAATTCATCATATGCACACACAATACCAAAATGT [CACACA_site7945] | 10.3 ± 0.15
55 | TCATTTTAATTAAAAGTGCAAAAAATAATATAACTA [GTGCAC_site9968] | 10.1 ± 0.13
56 | ATTAATTCGTTTTGTACACACATAATGAATAATTTA [CACACA_site2235] | 11.1 ± 0.71
57 | TACAATAATGATTGTTGTACATTATTGATATTTAAA [XGTACX_site2940] | 10.9 ± 0.67
58 | TTTAATTTTTAATCAGTGCAATATTATATAATATAT | 9.88 ± 0.18
59 | AAAAAAAAACAGAAAACACACAAATTATCTTAGAAT [CACACA_site309] | 9.76 ± 0.18
60 | TTATATAGGTCATTCATAAATACAGTTTTTAAAAAA [CACACA_negctrl_site1340] | 10.2 ± 0.3
61 | ATTTATTTCACAAAAACATGCAGTTTGAAATTGCCA [TGCATGCA_site910] | 9.785 ± 0.049
62 | AATTCATTATATATACGTACATATTTCTGTATAAAA [XGTACX_site6371] | 11.3 ± 0.79
63 | GCATAAATTATCATAACATAAATATAAAAATATAAT [GTGCAC_negctrl_site55] | 9.79 ± 0.2
64 | GATTATTTTATAAGTACACACATTTATATATAATAA [CACACA_site2573] | 11.5 ± 1.1
65 | AAAAAAAAAAGACACACACACACATAAATATAAATA [CACACA_site6215] | 10.1 ± 0.11
66 | TTTCACCATATAAACGTGCACACTACAAAAATATAT [CACACA_site2547] | 10.6 ± 0.44

Row | Sequence | gcPBM binding intensity (ln)
67 | TTCATGCTTATATGTGCACACACAAAAGAAAAGAAA [CACACA_site1656] | 10.6 ± 0.57
68 | AAATAATAAATTATAACACACATATATATATATATA [CACACA_site4045] | 9.95 ± 0.3
69 | ATAATACAATTTATAACACACACACTATAATACATA [CACACA_site8338] | 10.025 ± 0.007
70 | GGAAAGACAGTTCACAGTACCCAGTAACTCTACGGA [XGTACX_site2009] | 10.6 ± 0.3
71 | TTGTTTATCAACAGCACACACAACAACAACAACAAC [CACACA_site458] | 10.1 ± 0.23
72 | ATAAAAACATAAACAAATCAAAAAAAAAAAAAAAAA [CACACA_negctrl_site13] | 9.54 ± 0.38
73 | GAGCGTAATCTATTTGCACACTTATTTGTTCTTAAA [CACACA_site673] | 10.055 ± 0.007
74 | GTGTATAATATAGGATGTACAATAAAACACCGATTG [XGTACX_site7429] | 11.1 ± 0.71
75 | ATTTAAATATCTTCTTTTTTTTTTTTTTTTGAAATT [CACACA_negctrl_site1074] | 9.53 ± 0.085
76 | AAATAATGAAACAAAGTGCATAAAAATATACATATA [GTGCAC_site9467] | 9.96 ± 0.071
77 | ATGGATTATACGTGCACACATATATACCAATAAATA [CACACA_site4524] | 10.7 ± 0.58
78 | CATTAAAATATGAGATGTACACAATATCTATTATAT [XGTACX_site4979] | 11.4 ± 0.67
79 | ATTATTTTCTCATAGAGTACAAATGTTGTTGTTGTC [XGTACX_site1062] | 11.1 ± 0.86
80 | TATTTTCATAATAAAAAAAAATAATTTAAAAAATAT [CACACA_negctrl_site748] | 9.595 ± 0.007
81 | TGTTATATGTTCAAATGTACAAATCATATACATGTT [XGTACX_site3192] | 10.6 ± 0.38
82 | GTGTACAGACACAAAATATATACATATATATATATA [CACACA_negctrl_site1796] | 10.8 ± 0.81
83 | AATATATAAACCGAACGTACATATTTTTTATACACC [XGTACX_site2121] | 11.1 ± 0.53
84 | AATTATATTTGAAATACACACATAAAAATCATATAG [CACACA_site3468] | 9.98 ± 0.028
85 | CTTATTGATTTAAAAAGTACATATATGTATATACAC [XGTACX_site4072] | 11.5 ± 0.83
86 | AAAAAAAAAAAAAATACACACATATAAATATAAATA [CACACA_site6189] | 9.91 ± 0.21
87 | AGATTTAAATATCATACACACTTTATATATAATACA [CACACA_site4688] | 9.99 ± 0.23
88 | ATTAGAGAATCGTAACCCAAATGAACATACTTAAAT [GTGCAC_negctrl_site363] | 10.04 ± 0.035

— the supplement of paper PMC11417369
